# The other results are listed elsewhere or left out.
# System: T1, Caupolican (Caup) homeodomain DNA-binding domain
# T1 sequence: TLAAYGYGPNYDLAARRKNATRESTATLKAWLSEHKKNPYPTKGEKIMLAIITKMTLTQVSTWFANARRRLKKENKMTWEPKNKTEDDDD
# Assay: PBM E-score (8-mer, recovered from the published 9-mer minima) (E-score (dimensionless, -0.5 to 0.5)); Drosophila protein; higher = stronger relative binding preference, active = 0.31 or more
# Method: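 Protein binding microarray (PBM): in vitro transcribed/translated Caupolican (Caup) homeodomain DNA-binding domain (residues 214-303) applied at 100 nM to a universal 8-mer PBM array (Agilent AMADID 015681). The 8-mer enrichment score (E-score, range -0.5 to 0.5) was computed, and each 9-mer score is the minimum E-score of its two constituent 8-mers. The E-score is the same for a 9-mer and its reverse complement; 0.31 is the stated binding threshold.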
row,Sequence,PBM E-score
1,ACTAATAA,inactive: 0.175
2,AAACCTCC,inactive: -0.124
3,AGTTCTGC,inactive: -0.0355
4,ACCCCCAA,≥ -0.112
5,ACGCCTAA,inactive: 0.0349
6,AGACTTCG,inactive: -0.0889
7,CAACACGC,inactive: 0.239
8,GCTACGGA,inactive: -0.0779
9,CGCCCATC,inactive: -0.155
10,CGTGAGTC,inactive: -0.0814
11,CTGTGCGA,inactive: -0.0551
12,CTGGAGTA,inactive: -0.0333
13,AACAAAGA,inactive: 0.0783
14,AAACAGCA,inactive: 0.163
15,AAGTCTGC,inactive: -0.0465
16,ATTTCCGA,inactive: -0.03
17,TGTTTCAA,≥ 0.243
18,CTAGACCC,inactive: -0.147
19,GCAATATA,inactive: 0.0608
20,AAAGCGCG,inactive: -0.104
21,CTATCGGA,inactive: 0.00343
22,ATCCCGGC,inactive: -0.153
23,AAGCACAC,inactive: 0.0261
24,CTAATCCC,inactive: 0.00576
25,CAGGCTGG,inactive: -0.157

row,Sequence,PBM E-score
1,CCGTGGGA,inactive: -0.195
2,CAGAGCCC,inactive: -0.202
3,CCTACCTA,inactive: 0.0226
4,AAAGCCGA,inactive: -0.139
5,GGCGGTCA,inactive: -0.235
6,TAGTTAAA,inactive: 0.141
7,ACCCAGCC,inactive: -0.2
8,GCGCCGAA,inactive: -0.103
9,CATGATCC,inactive: 0.0575
10,ACGGCACG,inactive: -0.0559
11,TACTCACA,inactive: 0.129
12,CGTATGTA,inactive: 0.289
13,AATTGCAG,inactive: 0.033
14,AACTCATG,inactive: 0.119
15,GAGGGTCC,inactive: -0.236
16,CTGAACTA,inactive: 0.0633
17,GGCGAGAA,inactive: -0.0726
18,CCTTGACC,inactive: -0.115
19,AGTCCGTG,inactive: -0.0293
20,TTGCCCAA,inactive: -0.127
21,GTCGAGAC,inactive: 0.0718
22,CGTCGTAG,inactive: -0.133
23,CGAGCGAA,inactive: -0.079
24,GCCGTGTA,active: 0.341
25,CGCCCATA,inactive: -0.126

row,Sequence,PBM E-score
1,TAGTCAGA,inactive: 0.0762
2,CAACACTC,inactive: 0.0803
3,GGTGTGAC,inactive: -0.0123
4,ATTGATAC,inactive: 0.139
5,CACATAAA,inactive: 0.121
6,CCATGGGC,inactive: -0.163
7,CATTCTCG,inactive: -0.0197
8,ACGTCATC,inactive: -0.0358
9,AGCTAAGA,inactive: -0.0433
10,GAGTCAAA,inactive: -0.0806
11,ACTGTTGC,inactive: 0.0834
12,GCCGACCC,inactive: -0.282
13,TAAATGTA,inactive: 0.258
14,GAGGGTTA,inactive: -0.0332
15,AGGGTCAC,inactive: -0.0853
16,CCAATCCG,inactive: -0.194
17,AGCAAATC,inactive: 0.0953
18,GGAGAGGA,inactive: -0.252
19,AATGTAAC,inactive: 0.295
20,CCCCGCAC,inactive: -0.203
21,CAGAATAC,inactive: 0.118
22,TGACCGCA,inactive: -0.0827
23,AAATCTCA,inactive: -0.00515
24,GACTTCCA,inactive: -0.143
25,CATCTCAA,inactive: 0.183

row,Sequence,PBM E-score
1,GTCTGAGA,inactive: -0.0277
2,ATCTAGAC,inactive: -0.00057
3,CTCGAAGA,inactive: -0.0993
4,CGTCTGCA,inactive: 0.00318
5,GAAATGTA,inactive: 0.131
6,CGAGTGAA,inactive: -0.00479
7,CGCTCAGC,inactive: -0.138
8,GATCGTGA,inactive: 0.0591
9,CCACGTCA,inactive: 0.0188
10,AAACGCCT,inactive: -0.02
11,CAGATACG,inactive: -0.0468
12,AGATATGA,inactive: 0.0393
13,GGACATCA,inactive: 0.234
14,AAAAAGTT,inactive: 0.0271
15,AGATGTTA,inactive: 0.286
16,TGAATTCA,inactive: 0.0887
17,AGAAACGC,inactive: -0.0779
18,ATGTCCGG,inactive: 0.139
19,AAAGGAGA,inactive: -0.0827
20,GCTTGACC,inactive: -0.0615
21,GGAAGCGA,inactive: -0.0872
22,ACCGGCTA,≥ -0.0645
23,AAGGATAA,inactive: 0.0717
24,GTGTTAAA,inactive: 0.246
25,ATATTAGA,inactive: 0.168

row,Sequence,PBM E-score
1,CCATGCCG,inactive: -0.0587
2,AAAGACTC,inactive: -0.0151
3,CCAAGGTA,inactive: -0.00354
4,GGCAGGTA,inactive: -0.126
5,ATAGAGCC,inactive: -0.124
6,GCGACGGA,inactive: -0.0825
7,ACAGGAGG,inactive: -5e-05
8,AGATATAC,inactive: 0.103
9,AATGGAGG,inactive: -0.102
10,CTGCGAAC,inactive: -0.0168
11,AAGGACAG,inactive: -0.00712
12,ATATCGTA,inactive: 0.068
13,GTTAGGTA,inactive: 0.141
14,GCACGTAA,inactive: 0.0741
15,CGCTATAG,inactive: -0.025
16,ATCCGCAG,inactive: -0.0072
17,GTCTTCCA,inactive: -0.109
18,ACGATAAT,≥ 0.183
19,ATAATTAC,inactive: 0.213
20,ACATAATG,inactive: 0.263
21,GGGGCCTA,inactive: -0.286
22,CTATCAAG,inactive: 0.00356
23,GTCTTCAC,inactive: -0.136
24,GTAGTAAA,inactive: 0.172
25,CTATCAGA,inactive: -0.0505

row,Sequence,PBM E-score
1,ACGCGCGC,inactive: -0.0615
2,AAACCCCA,≥ -0.0114
3,AGCATTAA,inactive: 0.103
4,CTGTGGTC,inactive: -0.0302
5,ACGACCAG,≥ 0.124
6,TGTATTAA,inactive: 0.235
7,CGATATTC,inactive: -0.0778
8,AATACATG,active: 0.424
9,ACCTCTAA,inactive: -0.00946
10,AGGCTGGG,inactive: -0.186
11,ATCCGAAT,≥ 0.074
12,CTGTGATA,inactive: 0.0638
13,AGCAGGAA,inactive: 0.0483
14,CCGGAACG,inactive: -0.115
15,AAGGATCT,inactive: -0.00914
16,CGAAACTC,inactive: -0.0915
17,ATAGACTG,inactive: 0.0292
18,AGTCAGGC,inactive: -0.0766
19,CATCTGAA,inactive: 0.0826
20,GAATCATC,inactive: 0.094
21,GGCGGTTA,inactive: -0.105
22,GCTCGTAC,inactive: 0.119
23,ACCGATTC,inactive: -0.0481
24,GCAAGAGA,inactive: -0.0921
25,TCGAACCA,inactive: -0.03

row,Sequence,PBM E-score
1,CGTCGTCA,inactive: -0.0203
2,CCGCTTCA,inactive: -0.12
3,AGAGAGAT,inactive: 0.0266
4,GGCCCGAA,inactive: -0.184
5,ATGGGTTA,inactive: 0.0982
6,GGTCCAAA,inactive: -0.052
7,ATTTTAGA,inactive: 0.0139
8,AGACCCAC,inactive: -0.152
9,AGCACGCC,inactive: -0.187
10,GCAGACAA,inactive: 0.116
11,CAGACTTC,inactive: -0.0341
12,ACTCTCGC,inactive: -0.115
13,CCGACTGC,inactive: -0.139
14,ATCTGCAA,inactive: 0.0673
15,ACTCAGCT,inactive: -0.0505
16,AGGAACGA,inactive: -0.038
17,ACCGCGCT,inactive: -0.108
18,ACTGCGGA,inactive: -0.03
19,CGCGAAGA,inactive: -0.0746
20,AGTTTCCC,inactive: -0.127
21,ACTTTTAA,inactive: 0.0462
22,CCACGAGC,inactive: -0.122
23,GATCGGGC,inactive: -0.15
24,CCTGTAAA,inactive: 0.131
25,CCCTGAAA,inactive: -0.0553

row,Sequence,PBM E-score
1,AAAGCCAA,inactive: -0.0847
2,AGATATGG,inactive: 0.106
3,CCAGAGGG,inactive: -0.281
4,GATCCTAA,inactive: 0.0403
5,ATCTTTGG,inactive: -0.0471
6,ATTCGAGG,inactive: -0.0796
7,CTCAACAA,inactive: 0.178
8,GAATCGTC,inactive: -0.134
9,CGGTTGGC,inactive: -0.17
10,CTTGGTAA,inactive: 0.0467
11,GGCAGAAC,inactive: -0.044
12,AGTCTAGC,inactive: -0.122
13,GACATCCC,inactive: 0.22
14,AATATAAA,inactive: 0.17
15,ATATTACA,active: 0.35
16,ACTGAAGG,inactive: -0.0463
17,AAACCTGA,inactive: 0.0633
18,GCGCTTGA,inactive: -0.0585
19,CTAGGTGA,inactive: 0.00772
20,CAGTGCAG,inactive: -0.113
21,CGTAGCCA,inactive: -0.0662
22,ACGCACGC,inactive: -0.0707
23,ATGGTAAT,inactive: 0.224
24,AGATCGTA,inactive: 0.0125
25,AGCCACGG,inactive: -0.237

row,Sequence,PBM E-score
1,AACCATGG,inactive: 0.0193
2,ATGTACAT,active: ≥ 0.469
3,TTGGACAA,inactive: 0.289
4,AGCCGTCA,inactive: -0.0842
5,CGTACCAG,inactive: -0.0187
6,CGGAAACA,inactive: 0.169
7,GAAGTCTC,inactive: -0.118
8,AGGCCGGA,inactive: -0.274
9,GATACACC,inactive: 0.165
10,CATAGACG,inactive: 0.113
11,ACGAACGT,inactive: -0.00471
12,ATGATCAT,inactive: 0.125
13,CAATAATC,inactive: 0.102
14,AAAGGAGG,inactive: -0.2
15,CGAGGGCC,inactive: -0.192
16,CGTAAACC,inactive: -0.0982
17,TGAGGTAA,inactive: 0.0515
18,ATGGGGTC,inactive: -0.189
19,GCTTAAGC,inactive: -0.113
20,CTCGGATA,inactive: 0.034
21,CTTCTTTC,inactive: -0.0224
22,GCGCGAGA,inactive: -0.0941
23,CGTCAAGA,inactive: -0.0961
